{"source": "the RNAGym collection of RNA variant scans (doi:10.7554/elife.90254)", "parents": {"B1": {"name": "LINE1-mini (parent)", "chain": "GGCAGAGCUCAACACAGCGUGGCAAAGUGGCUGUGGCUAGACUGCC"}}, "note": "The source gives no read counts; variants with many changes may rest on few reads.", "data": [{"variants_of": "B1", "experiment": "self-cleavage, relative activity (ratio to wild type); higher = more cleavage; in vitro, sequencing; the parent is a self-cleaving ribozyme", "values": [{"variant": "A4G G21U A25C C42A", "self-cleavage": 0.07}, {"variant": "A4U C8A U28A U43C", "self-cleavage": 0.83}, {"variant": "A4U C10A G19U A39U", "self-cleavage": 0.02}, {"variant": "A4U A11C U34G G36A U38G", "self-cleavage": 0.02}, {"variant": "A4U A11G C18G", "self-cleavage": 0.01}, {"variant": "A4G U28G G35C G36U", "self-cleavage": 0.1}, {"variant": "A4G G5A C13U C15A A16U G30C", "self-cleavage": 0.03}, {"variant": "A4G G7U G29A G33C", "self-cleavage": 0.13}, {"variant": "A4G G5A A16G C18A U20G C46A", "self-cleavage": 0.05}, {"variant": "A4G U9A A25C C31U", "self-cleavage": 0.09}, {"variant": "A4G U9C A25U U34A C46A", "self-cleavage": 0.07}, {"variant": "A4G G17C G40U", "self-cleavage": 0.08}, {"variant": "A4U A25G C37A", "self-cleavage": 2.43}, {"variant": "A4U C10A A26U A39C", "self-cleavage": 0.01}, {"variant": "A4G U20C A25U A26G", "self-cleavage": 0.15}, {"variant": "A4G G22A G40A C45G", "self-cleavage": 0.02}, {"variant": "A4U C8U C10G U38G A41G", "self-cleavage": 0.03}, {"variant": "A4U C8U A26G", "self-cleavage": 0.11}, {"variant": "A4U C8A U9G C18U A25G U28G", "self-cleavage": 0.23}, {"variant": "A4G G19A U43C", "self-cleavage": 2.08}, {"variant": "A4G G30U A41C", "self-cleavage": 0.12}, {"variant": "A4U C8G U9C G27A C37G A41C", "self-cleavage": 0}, {"variant": "A4G G5C A14G C15A C37A", "self-cleavage": 0.05}, {"variant": "A4G G5A A6U G7A C10G G22A A26U", "self-cleavage": 0.02}, {"variant": "A4U A11G U20C G29C", "self-cleavage": 0.02}, {"variant": "A4U A12G G19A G27C", "self-cleavage": 0.03}, {"variant": "A4G G22A A25C G40C", "self-cleavage": 0.07}, {"variant": "A4G C31G A39C", "self-cleavage": 0.07}, {"variant": "A4U C10A A25U U32G", "self-cleavage": 0.06}, {"variant": "A4U C8G A11U G33C", "self-cleavage": 0.04}, {"variant": "A4G C42A C45A", "self-cleavage": 0.08}, {"variant": "A4G G35U C42U", "self-cleavage": 0.05}, {"variant": "A4G G5A G44U", "self-cleavage": 0.24}, {"variant": "A4G U9C A24U U32C", "self-cleavage": 0.02}, {"variant": "A4G G5U G29A C37A", "self-cleavage": 0.06}, {"variant": "A4U A12C G19U C31G C42U", "self-cleavage": 0.02}, {"variant": "A4U A6G G27C G33U", "self-cleavage": 0.09}, {"variant": "A4G U32G U34A", "self-cleavage": 0.08}, {"variant": "A4U A6G C42A", "self-cleavage": 0}, {"variant": "A4G G7A C13A G30A C31A G35C", "self-cleavage": 0.16}, {"variant": "A4G G33A A39C U43A", "self-cleavage": 0.02}, {"variant": "A4U A16U A41G", "self-cleavage": 0.03}, {"variant": "A4G U9G C37G", "self-cleavage": 0.05}, {"variant": "A4G U9G A11C", "self-cleavage": 0}, {"variant": "A4U C8U C18A U20A G27C C42A", "self-cleavage": 0.03}, {"variant": "A4U C8A U9A", "self-cleavage": 0.12}, {"variant": "A4U C8U C13G", "self-cleavage": 0.05}, {"variant": "A4U C10A G17A A39C", "self-cleavage": 0.01}, {"variant": "A4G G17A U43G", "self-cleavage": 0.1}, {"variant": "A4G G7C C8U G22C A26C G40A G44U", "self-cleavage": 0.56}, {"variant": "A4G G30U G44C", "self-cleavage": 0.04}, {"variant": "A4U A16U A24C C45G", "self-cleavage": 0.01}, {"variant": "A4G G7U G17A", "self-cleavage": 0.38}, {"variant": "A4G G5U A6G G7A U28C", "self-cleavage": 0.1}, {"variant": "A4U A24U G35U", "self-cleavage": 0.07}, {"variant": "A4U A6G G27C U32C C37G", "self-cleavage": 0.06}, {"variant": "A4G G29U A39U G40U", "self-cleavage": 0.17}, {"variant": "A4U A6U A11C G19A C42A", "self-cleavage": 0.04}, {"variant": "A4U A24G G30A G44C", "self-cleavage": 0.09}, {"variant": "A4U C8A U28C U34C", "self-cleavage": 0.06}, {"variant": "A4G G21U G44U", "self-cleavage": 0.06}, {"variant": "A4G G36A U38G", "self-cleavage": 0.05}, {"variant": "A4U A16U C45A", "self-cleavage": 0}, {"variant": "A4G G7C C13A U20G C31G A39G", "self-cleavage": 0.02}, {"variant": "A4G U20G A24G", "self-cleavage": 0.21}, {"variant": "A4G G17C G35A", "self-cleavage": 0.04}, {"variant": "A4G U28A G33U G36U", "self-cleavage": 0.08}, {"variant": "A4G U20C G30C", "self-cleavage": 0.07}, {"variant": "A4U C8A G21U G40U", "self-cleavage": 1.16}, {"variant": "A4U A11C A16G U28G C45U", "self-cleavage": 0.01}, {"variant": "A4G G36C U38G", "self-cleavage": 0.02}, {"variant": "A4G G19U A26C C45A", "self-cleavage": 0.39}, {"variant": "A4U A16U U20G", "self-cleavage": 0.08}, {"variant": "A4U C8G A11U G19U C23U A41C", "self-cleavage": 0}, {"variant": "A4G U32G G33A A41U", "self-cleavage": 0.02}, {"variant": "A4G C37G G40C C45U", "self-cleavage": 0.02}, {"variant": "A4G G7C A16C G35A", "self-cleavage": 0.3}, {"variant": "A4U A11G U20A G21A", "self-cleavage": 0.02}, {"variant": "A4G G21A U32A", "self-cleavage": 0.02}, {"variant": "A4G G17U G19C C37U", "self-cleavage": 0}, {"variant": "A4U C10A C23A G40U", "self-cleavage": 0}, {"variant": "A4U A12C G21A", "self-cleavage": 0.03}, {"variant": "A4U A25U G27U U32G", "self-cleavage": 0.08}, {"variant": "A4G G22A G33U", "self-cleavage": 0.17}]}]}
